According to the supplement of paper PMC11417369:
The list shows a part of the results.

Test system: PfHDP1 homeodomain (GST-tagged)
Test: gcPBM binding intensity (ln(normalized median fluorescence intensity)); higher = stronger DNA binding
Method in brief: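 The binding buffer was 1× PBS containing 1% milk, 0.2 mg/ml BSA, 0.5% salmon testes DNA and 0.03% Triton X-100. In it, GST-tagged P. falciparum DNA-binding domains expressed in E. coli were applied for 1 h to an Agilent 4 × 180k array of primer-extended double-stranded 36-bp intergenic genomic probes plus negative controls. Binding intensity, read with Alexa488 anti-GST antibody and a 488 nm scan, is the highest Masliner-normalised natural-log median intensity across replicate spots of either probe orientation.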

Row | Sequence | gcPBM binding intensity (ln)
1 | TTTTGGATCATTTGTTGTACATATGCAAAAAAAAAA [XGTACX_site3157] | 7.09
2 | GGAAAATACATTCCAGTGCATTAATTTATTCAACGT | 9.8
3 | TATGATACATAATATACATGCATACACAACATTCAG [TGCATGCA_site487] | 6.71
4 | ATTTTTTTGTGTTTGGTACACACGTTATAAAAAATA [CACACA_site1345] | 6.32
5 | TTGGTAATAATTTGAGGTACACTGTATAAATTTTTT [XGTACX_site909] | 6.27
6 | AATAATAAATTATGGTGTACGCATTTGTATATATAC [XGTACX_site5417] | 6.54
7 | TTTTTTTCTTAAAGATGTACTTTTTTAAAATAATCT [XGTACX_site3663] | 6.04
8 | GCCCAACCAAAATATACACACAGTTGAATGAATAAA [CACACA_site2597] | 6.6
9 | TATATTTGGAAATATTCTCAATTGGTACAAATAAAA [CACACA_negctrl_site1202] | 6.55
10 | TAAAAGAAATATACATGTACATAAATATATATATAT [XGTACX_site1276] | 8.9
11 | ACATTTTATACGATAAAATGTATAAGATTATGAAGA [TGCATGCA_negctrl_site476] | 6.58
12 | AAAATAATAACATTGTGTACATAAAAAGAAAACCTT [XGTACX_site840] | 6.65
13 | TTATGTCATAAATGCACACATATATATATACATATA [CACACA_site1588] | 10.5
14 | AGGCACGTGTTATATACACACATAATCAAATAAACT [CACACA_site7852] | 6.91
15 | TATGAATGGTTAAGTACACACATATTAATATATGTA [CACACA_site3490] | 6.36
16 | AAATGAAAATAAAGCAACAGAAATATAATGTATTAT [GTGCAC_negctrl_site508] | 6.47
17 | TTAACCTTTTGATATTGTACCCATAATCTAATACAA [XGTACX_site769] | 6.47
18 | TTTTTTAAAAAAGTTTTCTGTATTTATATATATATA [CACACA_negctrl_site31] | 8.56
19 | TCATATGTATAAATTAGTACATATTTAATGGATATA [XGTACX_site3298] | 6.26
20 | CTATCTACATAAACGTGTACCCACAAATAAATAAAT [XGTACX_site5210] | 6.52
21 | TGGTACCTTACTTTTACACACTTTTTTTTTTTTTTT [CACACA_site1557] | 6.37
22 | TTTTGAGTAGCCTATTGTACGAACTTTTTAAATACA [XGTACX_site1224] | 5.78
23 | AATATATACGCATGCGCACACACAAGTGGGAAATTT [CACACA_site1786] | 7.29

Row | Sequence | gcPBM binding intensity (ln)
24 | CCATTTTAAATATGCACACAGATGCACTAACACATT [CACACA_site5099] | 10.6
25 | ATAAATTTATCCAAGTGTACAAAGCTAACATTTTTT [XGTACX_site4399] | 6.4
26 | CATCCTATTACTTGGTGTACTATTTTATATTGAATA [XGTACX_site1050] | 6.6
27 | AAAAATGGAATTATCTGTACATATATAGTTTTTAAA [XGTACX_site5580] | 6.12
28 | ATAAACAAGACGCAACAAAGTAGAAATTAAAAATAA [CACACA_negctrl_site345] | 6.39
29 | GTTTATAAAATAAGAAGTACTTTATGAGAACCATAT [XGTACX_site5789] | 6.18
30 | TTTTTTTACAACATTACACACAAATATTCTGTGTTA [CACACA_site5957] | 7.53
31 | AACATTTTAAAACAGACACACACCAAAAAAAAAAAA [CACACA_site257] | 6.26
32 | AACAAAAATAATAATCAAATAAATAAATGAAAACAT [CACACA_negctrl_site456] | 6.49
33 | AATCGTGTTCTGAATACACACTAATACAAATTTGTA [CACACA_site6058] | 6.82
34 | AGAAAATTAAAAAGAACACACAAATATATATATAAT [CACACA_site5896] | 6.8
35 | ATATTACAACATTTTATACACACGTGATTATTAATT [CACACA_site2877] | 7.1
36 | CACCCATAAATATACACACGCACAACACAAAATAAA [CACACA_site2903] | 7.24
37 | ATATATATATATACATGTACAAATGTATAACAAATG [XGTACX_site145] | 8.84
38 | TTTTGTTTAAAAAAAAAAAACAAAAAAAAGCAATTA [CACACA_negctrl_site314] | 5.94
39 | TAATTTGTTATGTATTGTACAAATAATATATGATAT [XGTACX_site1985] | 6.74
40 | ATTAAAAAAATATACGCACACAAAATGTAATAACAA [CACACA_site2439] | 7.15
41 | TTACATAATTTATGTACACACGCAAATACTTATAAT [CACACA_site4331] | 6.78
42 | ATTATTACTTTTTGAGTGCACATACACACAGACATA | 10
43 | ATTTTTCATTCTGGACATGTTACCATTATATATATG [CACACA_negctrl_site61] | 7.16
44 | ATAACTATAATAATCATACACACCAAAGAGAATATT [CACACA_site6970] | 6.89
45 | ATGAAACACTCCATAGTGCAAAATATATATTATATT | 9.33
46 | CTATTTTTCCTGAAATGTACAAGAATTTTATTTGAT [XGTACX_site8867] | 6.15

Row | Sequence | gcPBM binding intensity (ln)
47 | TGATAATATTATATATGTACATATATGTATATTTTT [XGTACX_site7193] | 6.38
48 | AATTCAATTGAGCAAAATTCAAATAAATTAAAAAGA [XGTACX_negctrl_site71] | 7.15
49 | CAAAAATAATTTAGGTGTACAAATTTGACAAAAAAA [XGTACX_site188] | 7.11
50 | ATATGGGTGAACATATGTACATATATATATTGATAA [XGTACX_site8438] | 6.81
51 | TTGGTATATTATAAAAGTACACATAATAAAAAATTT [XGTACX_site7985] | 6.52
52 | TTTATTTATAGGTATACACACTTTAATTAAAAGTTG [CACACA_site7232] | 6.63
53 | CCTAAAGTGTAAAATTCACACACATATATATATATA [CACACA_site8385] | 9.3
54 | TTTATTTTTGAAGTTGCACACACAAAAATAAAAAGT [CACACA_site8030] | 8.92
55 | TTAAATATTTTTTATACACACATTTCTTATTTAACT [CACACA_site229] | 6.87
56 | TAATTATTATTAATAGTACACACTATGGCATTTCAA [CACACA_site2488] | 6.37
57 | TTTTTTTCAATATTTGCACACGATTAAAATATTTAA [CACACA_site5266] | 10.6
58 | TATTATATATATATATGTACATATTGTATGTTATAT [XGTACX_site5303] | 6.68
59 | CAAACATATTAATGTACACACACCCACCCACAAACA [CACACA_site2752] | 8.44
60 | TATGTGAATATTGAGGTGCGGTTGTTAAAATTTATA [GTGCAC_site9915] | 6.66
61 | AGTAGTCTGGAGAAGAGTACACAGTATCTGGTAGCT [XGTACX_site2042] | 5.83
62 | ACATTAACATTGTTGGTGCAAAATTAATATGTTTTT [GTGCAC_site9673] | 10.7
63 | AAATTTGCTTTACCAGTGCAAAAAAAAAAAAAAAAA | 8.88
64 | TGTTTTTATCCTTATGGTACAGTATAATACTTACAG [XGTACX_site6381] | 6.62
65 | AAATCACATAAAAATAGTACTTTTTTTTTTTTTTTT [XGTACX_site2696] | 6.35
66 | GGAAAATGAAAACAAGGTACACATAAGAACAAACAA [XGTACX_site1221] | 7.25
67 | AATAGGGTCATTCAAAAAAAAAAAAAATAATAATAC [CACACA_negctrl_site644] | 6.57
68 | ATATATATATATATATGTACGTATAATATATATATG [XGTACX_site2212] | 9.38
69 | ATTATTCAGGTAAAGTGTACAGGAGAAAAATAAAAT [XGTACX_site334] | 7.27

Row | Sequence | gcPBM binding intensity (ln)
70 | CGCACCCAAATATATACACACATATATATATATATA [CACACA_site1651] | 9.39
71 | TATATGTTTAATTTCACACACAAATATGCATTTTAA [CACACA_site7881] | 6.84
72 | AAATAAATACTAGGCACACACACATATATATATATA [CACACA_site2079] | 9.14
73 | ATTGTAAGGAAACACACACACATATATATGTATATA [CACACA_site676] | 6.84
74 | ATTATTGTAATATTAGCACACATTACCTCACTACAA [CACACA_site2560] | 7.21
75 | AAAAAGAAGAAGAAATGTACGTAACTATATATTTAT [XGTACX_site4362] | 6.47
76 | TGGCTTTCCCTGCCGGTGCATTAACATTTTTTACAT [GTGCAC_site9914] | 10.2
77 | TTAATGGAAAAATAGGCACACACACCGATATACATA [CACACA_site8356] | 6.8
78 | TTAATATTCCAGCTTTGTACATATATATATTATAAA [XGTACX_site7954] | 6.6
79 | TTTTACATAAATTATAAATATATAAAATAAAAAAAA [CACACA_negctrl_site1499] | 6.19
80 | CATATATATATTTTTTGTACATATATTTTTACATAT [XGTACX_site8419] | 6.81
81 | AATATAAAAATGTTTACACACACACGGAAATATATT [CACACA_site7226] | 7.13
82 | ATATATATATGTGGATGTACATATATCTCTTATTAT [XGTACX_site1748] | 8.47
83 | ATGTTGTACAAACACACACACAAAAAAAAAATAAAA [CACACA_site2406] | 7.13
84 | TAAAATTAATAAAATATTTTCACTTAATATATATAA [CACACA_negctrl_site1550] | 6.57
85 | AGTACATTATAGAATACACACCTATATATATATATA [CACACA_site4447] | 9.29
86 | AATTATTAAATATGTACACACGTACATTTTATAAAT [CACACA_site5341] | 6.06
87 | TAATACATACACACATGTACATACAGAAATAAATAA [XGTACX_site3245] | 6.73
88 | TATTTTGTTCTTTCCACACACAAATACATATATTGT [CACACA_site4071] | 7.01
89 | ATTTTCCCTTGTTTTACACACGTGCTGATATGAGAT [CACACA_site2164] | 7.65
